We go through 44 sequences from the supplement of paper PMC11417369.

This is one part of the list.

For the assay, the system named is PfSIP2 AP2 domain 1 (GST-tagged). Kind of assay: gcPBM binding intensity (ln(normalized median fluorescence intensity)); higher = stronger DNA binding. The essentials:
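An Agilent 4 × 180k array carrying primer-extended double-stranded 36-bp intergenic genomic probes and negative controls received GST-tagged P. falciparum DNA-binding domains expressed in E. coli, about 25 μg on average, for 1 h. The binding buffer contained 1× PBS, 1% milk, 0.2 mg/ml BSA, 0.5% salmon testes DNA and 0.03% Triton X-100. Binding intensity is the top Masliner-normalised natural-log median intensity across replicate spots of either probe orientation, read after Alexa488 anti-GST antibody staining and a 488 nm scan.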
With “TTTTTTTTTTTTTTTTGTACGAATAAACAAGTTATT [XGTACX_site5473]”, the “gcPBM binding intensity (ln)” value amounted to 6.92.
In the case of “ATATATATATATATATGTACATATTTTATTTAATTT [XGTACX_site1807]”, the “gcPBM binding intensity (ln)” value turned out to be 9.33.
On to “AACTGTACAATTTTTGTGCACAATAATTATTAATAT [GTGCAC_site9462]”, for which the “gcPBM binding intensity (ln)” value was found to be 8.74.
Take “TGCTATATAATATGAGCACACATAAGATTTGGTGTT [CACACA_site8148]”: the “gcPBM binding intensity (ln)” value turned out to be 6.8.
Consider “ATATTTTTATTTAAACGTACATACACGTTGAAAAGA [XGTACX_site4567]”, for which the “gcPBM binding intensity (ln)” value worked out at 7.19.
Turning to “TAATGCATTATTAGAATACACACCATACGCATATTT [CACACA_site289]”, the “gcPBM binding intensity (ln)” value amounted to 6.85.
Turning to “TGATGTTGTAACAAAAGTACACACACATTTCTATAA [XGTACX_site5837]”, the “gcPBM binding intensity (ln)” value worked out at 7.11.
On to “TTTTCAATTAATAATACACACATGTATATATCATTA [CACACA_site7539]”, for which the “gcPBM binding intensity (ln)” value was found to be 6.92.
With “TTTTTCTTTTGATGTTGTACATATATATTATATATA [XGTACX_site2754]”, the “gcPBM binding intensity (ln)” value came to 7.25.
The figure for “AAGAAAAAAAAAAAAAATATATATATAAGAACATAT [TGCATGCA_negctrl_site131]” is 6.93; for “GATAAAACGTTATGCACACGTACGTGGGTATTTATA [CACACA_site4954]” it is 7.28.
“AACTATAAAAAAAATACACACATTACCAAAAATATA [CACACA_site1529]”: the “gcPBM binding intensity (ln)” value was determined as 6.92.
The figure for “AATCTGATTTGTATATGTACACAAATATTTTTATTT [XGTACX_site5295]” is 6.89; for “TTTAATAATTATTAAAGTACAAAATAAATATTGAAT [XGTACX_site7538]” it is 7.04.
Consider “TATAAAAAAATATATATATATATATATATATAAATA [TGCATGCA_negctrl_site22]”, for which the “gcPBM binding intensity (ln)” value amounted to 7.64.
Turning to “TTATGTAAAATCGATACATGCATTAATCATTTTATA [TGCATGCA_site493]”, the “gcPBM binding intensity (ln)” value came out at 7.03.
As for “TCATATTTCCATAGGAGTACATAAAAAAAATAATAT [XGTACX_site7601]”, the figure is 7.06; as for “TATGATATGTTATACACACACGTATTTATGAATTGA [CACACA_site7591]”, 6.99.
As to “TTCTTTATTATATGCACACGTACATATAATATATAT [CACACA_site2018]”, the “gcPBM binding intensity (ln)” value is 7.77.
Take “ATTTATATTAATGGATAAATAAATGTGTACTTGATA [CACACA_negctrl_site24]”: the “gcPBM binding intensity (ln)” value was found to be 6.96.
Consider “ATCAACAAAACATACACACACATATAGATTTATATA [CACACA_site7415]”, for which the “gcPBM binding intensity (ln)” value was 7.25.
With “AAAAAAAAAAAACACACACACATATATATATATATA [CACACA_site732]”, the “gcPBM binding intensity (ln)” value was found to be 9.34.
Consider “AATTAGCTATTTAAAAATATATAAAATTTATATATA [CACACA_negctrl_site390]”, for which the “gcPBM binding intensity (ln)” value turned out to be 6.72.
The figure for “GAAATAGAGAGACACACACACATATATTTATGTATT [CACACA_site7794]” is 6.79.
Take “ATCATATTGAATATTTAACACACATTTCGCTTAATT [CACACA_site8652]”: the “gcPBM binding intensity (ln)” value turned out to be 7.15.
Take “TATATATATAAAAGTTGTACAGTGTTTTATATAGTT [XGTACX_site7085]”: the “gcPBM binding intensity (ln)” value is 8.13.
For the sequence “TTATACTAAATGAACACACACACATCTATATTTATA [CACACA_site6199]”, the “gcPBM binding intensity (ln)” value worked out at 6.98.
As for “AATTAAAATAATAATACACACATCATAGAAAAAGAC [CACACA_site292]”, the figure is 7.96.
On to “AAATTAGACTATAATACACACATAAAAAAAAAATCA [CACACA_site7672]”, for which the “gcPBM binding intensity (ln)” value turned out to be 7.08.
Turning to “AATTGGGTAGGACATGCATGAGAAATTAATATTGCA [TGCATGCA_site356]”, the “gcPBM binding intensity (ln)” value is 7.17.
The figure for “ATATATATATATATATGTACTAACCTTTTAAAATAT [XGTACX_site6488]” is 9.27; for “TATTACATTGTTGAATGTACTCATTTAAAATTTATA [XGTACX_site7987]” it is 6.76.
As for “AATCAAAGCCCACATACACACACATATATATATATA [CACACA_site7987]”, the “gcPBM binding intensity (ln)” value is 9.39.
The figure for “ATGTCAAACATTTGCACACAAAAAAATAAAAATTAA [CACACA_site692]” is 7.22; for “TTTTTTTTTTTTTGCACACACATAATAGGTACAAAT [CACACA_site3577]” it is 7.5; for “TTTTTTTTTTTTTTCTCACACATTTAATGATAATAT [CACACA_site5513]” it is 7.06.
For the sequence “CATATTTACTATCACACACACGATATATATAAATAT [CACACA_site1241]”, the “gcPBM binding intensity (ln)” value amounted to 7.25.
Regarding “ATATAGAACACCTGTGCATGCAAGTGCTAAAAAATT [TGCATGCA_site213]”, the “gcPBM binding intensity (ln)” value came out at 8.43.
With “TAATATTATTTAGAGTGTACTCATAAATCAACAAAA [XGTACX_site5269]”, the “gcPBM binding intensity (ln)” value was 6.75.
Turning to “CTAAGCTAAGTAAGCTGTACTTCACCTTTATACAGT [XGTACX_site3087]”, the “gcPBM binding intensity (ln)” value came to 6.92.
The figure for “CTATTTTTATATTATTGTACGTTGTTATTATATATA [XGTACX_site1469]” is 7.38; for “TTTATATTTATATATACACACATATACATCCTATTT [CACACA_site3079]” it is 6.9.
The figure for ATATATATGGAAACAGTGCAATACATATATATATAT is 9.5; for “TTTTTCTTAAAAAATTGTACACATATATATATATAT [XGTACX_site542]” it is 9.58.
